Measured values reported in article PMC4336329 (PLoS ONE, 2015).
Among all 310,000 compounds or so, about 14,000 (4.5%) showed an effect of 50% or more. The effect is printed as a negative number. The list shows a part of the results.

What follows are molecules tested against human ether-à-go-go-related gene (hERG) potassium channel (human, UniProt Q12809) (assay: primary screen, population patch clamp on CHO cells stably expressing hERG).
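Further: peak tail current of the secondary pulse compared with the same well before compound.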

Chain of human ether-à-go-go-related gene (hERG) potassium channel (Q12809 whole entry, looked up): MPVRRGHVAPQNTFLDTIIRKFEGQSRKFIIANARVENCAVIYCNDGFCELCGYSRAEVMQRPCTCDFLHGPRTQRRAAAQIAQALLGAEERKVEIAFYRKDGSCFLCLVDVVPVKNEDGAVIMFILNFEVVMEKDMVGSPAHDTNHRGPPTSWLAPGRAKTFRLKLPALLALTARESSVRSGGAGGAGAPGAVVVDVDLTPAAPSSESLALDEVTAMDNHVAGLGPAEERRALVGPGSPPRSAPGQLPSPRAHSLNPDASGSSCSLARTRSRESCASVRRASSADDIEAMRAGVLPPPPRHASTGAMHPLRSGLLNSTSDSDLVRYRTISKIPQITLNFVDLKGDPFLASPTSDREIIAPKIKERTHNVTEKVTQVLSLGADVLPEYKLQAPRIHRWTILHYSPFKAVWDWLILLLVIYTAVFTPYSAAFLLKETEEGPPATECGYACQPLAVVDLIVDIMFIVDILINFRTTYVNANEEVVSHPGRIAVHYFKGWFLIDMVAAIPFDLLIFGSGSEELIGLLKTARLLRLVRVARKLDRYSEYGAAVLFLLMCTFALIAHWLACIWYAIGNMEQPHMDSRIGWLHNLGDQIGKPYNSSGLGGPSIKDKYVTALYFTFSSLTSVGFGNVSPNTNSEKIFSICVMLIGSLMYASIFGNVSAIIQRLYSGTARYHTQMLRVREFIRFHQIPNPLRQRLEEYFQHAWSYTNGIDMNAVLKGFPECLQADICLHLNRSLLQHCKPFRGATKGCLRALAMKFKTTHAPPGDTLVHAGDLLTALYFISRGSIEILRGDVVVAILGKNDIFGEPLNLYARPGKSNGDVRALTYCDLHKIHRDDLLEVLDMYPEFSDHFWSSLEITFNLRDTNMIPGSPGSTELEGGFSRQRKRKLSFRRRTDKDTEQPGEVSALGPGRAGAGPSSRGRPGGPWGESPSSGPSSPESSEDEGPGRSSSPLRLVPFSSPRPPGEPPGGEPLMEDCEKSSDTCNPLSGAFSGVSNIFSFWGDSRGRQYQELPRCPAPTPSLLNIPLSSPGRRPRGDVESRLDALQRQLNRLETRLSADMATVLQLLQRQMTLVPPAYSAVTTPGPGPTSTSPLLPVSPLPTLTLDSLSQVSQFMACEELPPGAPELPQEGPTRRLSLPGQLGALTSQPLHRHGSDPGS

Row | SMILES | hERG current change (%, negative = inhibition) at 10uM [%]
1 | Cc1cccc(OCC(=O)Nc2ccc(N3CCN(C(=O)c4ccco4)CC3)cc2)c1 | -28.1
2 | O=C(Nc1ccc(C(F)(F)F)cc1)C1(c2ccccc2)CC1 | -15.2
3 | O=c1cc(-c2ccc(O)c(O)c2)oc2cc(O)c(C3OC(CO)C(O)C(O)C3O)c(O)c12 (stereo not drawn) | 3.72
4 | COc1ccc(OC)c(C2C(C(=O)c3ccc(C)o3)=C(O)C(=O)N2CCN2CCOCC2)c1 (stereo not drawn) | 16.7
5 | COc1ccc(C)cc1Nc1n[n+](-c2ccccc2)c(-c2c(OC)ccc3ccccc23)s1.[Cl-] | -53.8
6 | O=C(O)/C=C/C(=O)Nc1ccc2nccnc2c1 | 24.7
7 | OCCNc1nc(-c2ccccc2)nc2c1oc1ccccc12 | -0.0828
8 | CCCc1ccc(OCC(O)CN2CCCC2)cc1.Cl (stereo not drawn) | -27.8
9 | CCC1=NC(c2ccccc2OC)N(O)C1(C)C (stereo not drawn) | 15.9
10 | O=C(N/N=C/c1cc(O)ccc1[N+](=O)[O-])c1ccc2c(c1)OCCO2 | -2.12
11 | COc1ccc(CCNC(=O)Nc2ccc(F)cc2F)cc1OC | 21
12 | CSc1nc2ccsc2c(=O)n1-c1ccccn1 | 14.3
13 | Cc1ccc(NC(=O)N2CCCC2C(=O)NCC2CCCCC2)cc1 (stereo not drawn) | 14.5
14 | CCCCCNC(=O)CN(c1ccc2c(c1)OCO2)S(C)(=O)=O | 8.95
15 | COP(=O)(OC)C(Nc1ccccn1)c1ccccc1 (stereo not drawn) | 26.6
16 | O=C(c1cc2cc(F)ccc2[nH]1)N1CCC2(CC1)OCCO2 | -6.7
17 | COc1ccc(-n2c(SCCC#N)nnc2-c2cc(Cl)ccc2OC)cc1Cl | 8.39
18 | Cc1cc(C)c(S(=O)(=O)NCCSCc2ccco2)c(C)c1 | 6.54
19 | CCOc1ccccc1N | 11.7
20 | CCCCC(CC)C(=O)Nc1cc(=O)[nH]c2nc3ccccc3n12 (stereo not drawn) | 16.9
21 | O=C(NCc1ccc(C(=O)O)cc1)OCc1ccccc1 | 13.8

Row | SMILES | hERG current change (%, negative = inhibition) at 10uM [%]
22 | O=C(CSc1nnc(CNC(=O)c2c(F)cccc2Cl)o1)NCc1ccc2c(c1)OCO2 | -19.8
23 | COc1ccc2cc3c(N)c(C(=O)N4CCCC4)sc3nc2c1 | -11.3
24 | Cc1ccc(OCC(=O)NC2CCCC(C)C2C)c([N+](=O)[O-])n1 (stereo not drawn) | -14.1
25 | O=C(CSCc1cnn(-c2ccccc2)c1-n1cccc1)NCCN1CCOCC1 | 6.64
26 | CC(C)c1ccc(-n2cnn(-c3ncccc3[N+](=O)[O-])c2=O)cc1 | -13.6
27 | COc1ccc(NC(=O)c2cc3c(-c4ccc(OC)c(OC)c4)nn(C)c3s2)cc1OC | 13.9
28 | N#Cc1cn(CC(=O)N2CCCc3ccccc32)c2ccccc12 | -14.7
29 | CN(C)CCSc1nc(O)c(-c2ccccc2)c(=O)n1-c1ccccc1 | 2.82
30 | CCOc1cc2[nH]c(=O)n(CCCCC(=O)N3CCCCCC3)c(=O)c2cc1OCC | 4.75
31 | COc1ccc(C(=O)NNC(=S)NC(=O)c2ccc(OC)cc2)cc1 | 27.6
32 | O=C(N/N=C/c1ccc(OC(F)F)cc1OC(F)F)NC1CCCCC1 | 1.4
33 | CCc1ccccc1NC(=S)N1CCN(c2ccccc2F)CC1 | 4.49
34 | CCc1sc(C(=O)NCCc2ccc(S(N)(=O)=O)cc2)cc1C | 12.8
35 | C/C(N)=C(/C#N)C(=O)CSc1nnc(Nc2ccccc2)s1 | 16.6
36 | COCCn1c(=O)[nH]c2cc(C(=O)NCc3cccnc3)ccc2c1=O | -20.9
37 | CC1CCN(C(=O)Cn2cc3c(n2)CCCC3)CC1 | -1.06
38 | COC(=O)Cc1cccc2c(=O)c3ccccc3oc12 | 23.8
39 | CC1CN(CC(O)COc2ccccc2C(C)(C)C)CC(C)O1.Cl (stereo not drawn) | -10.1
40 | COC(=O)[C@@]1(Cc2ccc(OC)cc2)[C@H]2c3cc(C(=O)N(C)C)n(CCc4ccc(OC)c(Br)c4)c3C[C@H]2CN1C(=O)c1ccccc1 | 11.4
41 | CN(C(=O)COC(=O)c1ccc(NS(=O)(=O)c2cccs2)cc1)C1CCCCC1 | -13.2
42 | COc1ccc(-c2cc(C(=O)N3CCN(C(c4ccccc4)c4ccccc4)CC3)no2)cc1OC | -8.12

Row | SMILES | hERG current change (%, negative = inhibition) at 10uM [%]
43 | CCOC(=O)c1[nH]c(C)c(C(=O)OCC(=O)N(Cc2ccccc2)C(C)C)c1C | -15.8
44 | Cc1cc(S(=O)(=O)NCCC2=CCCCC2)ccc1Br | -12.4
45 | COc1ccc(CCNC(=O)CSc2nnc(CNC(=O)c3cccs3)o2)cc1OC | -1.27
46 | CC(Sc1nnc(-c2ccco2)o1)C(=O)NCCC1=CCCCC1 (stereo not drawn) | -11.8
47 | Cc1noc(C)c1COC(=O)CCCc1nc2ccccc2s1 | -25.5
48 | COCCn1c(C)cc(C(=O)COC(=O)/C=C/c2cccc(OC)c2)c1C | -18.9
49 | Cc1oc2c(C)c3oc(=O)c(CC(=O)N[C@@H](CC(C)C)C(=O)N[C@@H](Cc4ccccc4)C(=O)O)c(C)c3cc2c1C | 14.1
50 | CCN1C/C(=N\S(=O)(=O)/N=C2\CN(CC)C(=O)N2CC)N(CC)C1=O | 5.87
51 | O=C(Nc1nccs1)c1ccc(CSc2ccccc2)o1 | -42.4
52 | O=S1(=O)CCOC[C@H](CC2CCCCC2)N1Cc1ccc(F)cc1 | -8.7
53 | O=S(=O)(c1ccc(-c2ccon2)s1)N1CCN(CCN2CCOCC2)CC1 | 17.4
54 | O=C(Cn1cnc2ccccc2c1=O)c1c[nH]c2ccccc12 | 2.67
55 | COc1ccc(C2c3c(oc4ccccc4c3=O)C(=O)N2c2ccccn2)cc1 (stereo not drawn) | 1.76
56 | CC(NC(=O)c1c(O)c2ccccc2n(C)c1=O)c1ccccc1 (stereo not drawn) | 1.28
57 | CC[C@H](C)[C@H]1O[C@]2(CC[C@@H]1C)C[C@@H]1C[C@@H](CC=C(C)[C@@H](O[C@H]3C[C@H](OC)[C@@H](O[C@H]4C[C@H](OC)[C@@H](O)[C@H](C)O4)[C@H](C)O3)[C@@H](C)C=CC=C3CO[C@@H]4[C@H](O)C(C)=C[C@@H](C(=O)O1)[C@]34O)O2 | 4.4
58 | O=c1[nH]c(O)c(/C=C2/C=CC(c3cc(Cl)ccc3Cl)=N2)c(=O)[nH]1 | 0.304
59 | O=C1NC(Cc2ccccc2)C(=O)Nc2ccc(Br)cc21 (stereo not drawn) | 2.26
60 | O=C(COC(=O)c1cccc2ccccc12)NCC1CCCO1 (stereo not drawn) | 4.32
61 | Cc1ccc(SCC(=O)Nc2cccc(C(=O)NC(C)(C)C)c2)cc1 | 4.17
62 | CCC(/C=N/Nc1ccc(S(=O)(=O)N2CCCC2)cc1[N+](=O)[O-])CC | 1.08
63 | Cc1ccc(C)c(C(=O)OCC(=O)N(C)c2ccccc2)c1 | -21.6

Row | SMILES | hERG current change (%, negative = inhibition) at 10uM [%]
64 | COc1ccc(N=C2SC(C(=O)Nc3ccc(C(=O)O)cc3)CC(=O)N2Cc2cccs2)cc1 (stereo not drawn) | 10.7
65 | COc1cc(C(=O)OCC(=O)NC(N)=O)cc(CN2C(=O)c3ccccc3C2=O)c1OC | 9.89
66 | CC(C)N(C(=O)CSc1nnnn1-c1ccc2c(c1)OCO2)C(C)C | 8.46
67 | CCc1nc2ccccc2c(NC(=O)CN2CC(C)CC(C)C2)c1C (stereo not drawn) | -17.7
68 | COc1ccccc1NC(=O)C(=O)N(c1cccnc1)C(C(=O)NC(C)(C)C)c1ccccc1F (stereo not drawn) | 11.7
69 | Cn1c2ccccc2c(=O)c2ccc(C#Cc3ccccn3)cc21 | 8.23
70 | COC(=O)C(CCSC)NC(=O)/C=C/c1ccc(OC)cc1 (stereo not drawn) | -1.07
71 | Cc1ccc(-c2cc(C(F)F)nc(S(C)(=O)=O)n2)cc1 | -11.6
72 | O=C(NCc1ccccc1)C1=C[C@H](c2ccc(C(F)(F)F)cc2)C[C@H](OCc2ccc(CO)cc2)O1 | 8.87
73 | CCOC(=O)c1cccc(NC(=O)CCc2nc(-c3ccccc3F)no2)c1 | 8.4
74 | Cc1ccccc1C(=O)NC(CC(C)C)C(=O)Nc1ccc(S(N)(=O)=O)cc1 (stereo not drawn) | 16.4
75 | Cc1ccc(NC(=O)N[C@@H](CC(C)C)C(=O)O)c(C)c1 | 29.6
76 | CN1C(=O)C(O)(CC(=O)c2cccc(-n3cccc3)c2)c2ccccc21 (stereo not drawn) | -10.4
77 | S=C(Nc1ccc(Cl)cc1)N1CCN(Cc2ccccc2)CC1 | 1.73
78 | CCOC(=O)c1cc2c(=O)n3cccc(C)c3nc2n(Cc2ccco2)c1=NC(=O)c1ccccc1 | -37.2
79 | COc1ccc(NC(=O)C2CCC(C(C)(C)C)CC2)cc1S(=O)(=O)N1CCCCC1 (stereo not drawn) | -9.09
80 | COc1ccc(NC(=O)c2ccc(CN3CCN(c4ccccc4)CC3)cc2)cc1 | -9.47
81 | CC(NC1CCN(Cc2ccccc2)CC1)c1ccc(F)cc1 (stereo not drawn) | 3.46
82 | Cc1cc(C)c2ccc3c(C)c(C)nc3c2[nH]1 | 10.2
83 | CN(CC(=O)Nc1ccc(F)cc1)C(=O)c1ccc(N2C(=O)CCC2=O)cc1 | -9.61
84 | O=C(NCc1ccco1)c1ccccc1O | 10.5
